Data reported in the supplement of paper PMC3334620.
The full ranking holds about 33,000 sequences; the median of “E-score (-0.5 to 0.5)” is about -0.011, and the highest 2% start at about 0.28. The list shows a part of the results.

target: T1, Gcr1 (UniProt P07261); experiment: PBM E-score (8-mer binding enrichment) (E-score (-0.5 to 0.5)); higher = stronger / more preferred TF binding; most listed sequences are background and not binding sites; settings: protein concentration: 100 nM; construct: GST-full length
T1 sequence: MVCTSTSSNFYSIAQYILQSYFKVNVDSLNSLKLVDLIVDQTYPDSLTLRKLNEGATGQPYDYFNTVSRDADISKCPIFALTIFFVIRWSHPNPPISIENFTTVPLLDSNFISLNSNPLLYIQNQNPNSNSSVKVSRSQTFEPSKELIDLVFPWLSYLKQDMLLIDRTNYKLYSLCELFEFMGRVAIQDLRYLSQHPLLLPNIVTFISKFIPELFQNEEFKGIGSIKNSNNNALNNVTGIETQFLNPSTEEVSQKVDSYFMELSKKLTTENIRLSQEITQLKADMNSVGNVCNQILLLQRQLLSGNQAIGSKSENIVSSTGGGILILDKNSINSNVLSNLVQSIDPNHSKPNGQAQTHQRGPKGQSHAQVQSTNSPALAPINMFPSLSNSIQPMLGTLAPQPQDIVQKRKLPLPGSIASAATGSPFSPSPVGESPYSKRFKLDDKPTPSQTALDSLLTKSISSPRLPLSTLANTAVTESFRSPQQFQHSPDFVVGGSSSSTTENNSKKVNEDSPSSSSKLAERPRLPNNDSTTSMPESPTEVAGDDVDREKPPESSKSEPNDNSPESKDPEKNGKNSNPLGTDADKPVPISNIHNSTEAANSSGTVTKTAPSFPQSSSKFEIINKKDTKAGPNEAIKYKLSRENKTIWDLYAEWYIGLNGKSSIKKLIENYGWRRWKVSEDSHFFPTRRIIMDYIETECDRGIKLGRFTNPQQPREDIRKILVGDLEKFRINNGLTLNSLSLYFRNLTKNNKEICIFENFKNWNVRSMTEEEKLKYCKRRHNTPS
In short: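 Universal all-10-mer Agilent arrays, fresh or stripped once, were converted to double-stranded form by primer extension. GST-tagged yeast transcription factors from PURExpress in vitro transcription/translation, full-length or DNA-binding domain only, were applied at about 100-200 nM and detected with fluorescent anti-GST. After masliner normalisation, the Universal PBM Analysis Suite scored each ungapped eight-base word together with its reverse complement by E-score.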

Sequence | PBM E-score
TAACCTTA | 0.0015
ATATGTCG | 0.111
ACGAACTC | 0.0909
CTCCTTAA | -0.0427
GGCTGGAC | -0.207
AGTCACTG | -0.105
ATTTAAAC | 0.0926
TAGTTAGA | -0.0205
ACTCAATC | -0.172
ATGTTAGC | -0.154
AGTTGCAC | -0.0239
AGTCGTGC | -0.103
AGGTCCCC | 0.132
CAGGTGCG | 0.0545
ACTGGCTC | -0.0201
AATCAACG | -0.0901
ACGTTCGC | -0.286
TATGGACA | 0.0384
CCATGAAC | 0.0264
AGAACGGC | -0.164
CTACAGGC | 0.104
CACTTCGA | 0.163
GCCACGCC | -0.138
ATAGCGTC | 0.255

Sequence | PBM E-score
GTCGAAAC | -0.153
ATGAACGC | 0.0593
CAAAAATA | 0.197
GGTTGTAC | -0.00016
CTATCCGA | -0.176
CAGACTGG | -0.08
CCACATCC | -0.0273
CAATAATG | 0.00993
TGAAGAAA | 0.0487
GAAGACAA | -0.0743
TCCTATAA | 0.334
GCCTAGAA | 0.00611
GATTCAGC | -0.113
ACATGTTG | 0.0619
CCAAATCC | 0.00339
ACATTTCC | 0.0691
GCGAGGGA | -0.142
GTTCCTAA | 0.237
ACATTGAC | -0.117
CCAACTCA | -0.071
GCATGAGA | -0.0609
CGAGCTCC | -0.0144
CCTCACAC | -0.324
ACTACTGC | -0.0813

Sequence | PBM E-score
CAAAGGTA | -0.00372
TGTTCCAA | 0.112
GGCACAAC | 0.0546
ATAAAACG | 0.0597
ACTTTGGC | -0.0848
ACTATCGA | -0.0816
CTCGCTGA | -0.164
CCGCAGCG | 0.0315
GAACCGTA | -0.0954
GCGTAAAC | 0.107
CAAACGGG | 0.0171
AGGGGTGA | 0.0779
AGACCGGC | -0.0223
AATGTCCC | -0.0296
CAGGGAAA | -0.0422
AAGCTGGC | -0.00364
AGGCGACA | -0.105
ATACATTA | 0.109
GATATGGA | 0.0843
AGGTTCGG | -0.0598
ATCCGTGG | -0.176
AATCCGAA | 0.259
GCATTTCA | 0.0146
AGAACCGA | -0.05

Sequence | PBM E-score
GCGACCAC | 0.232
CAGAACCC | 0.208
CTGCCCTC | -0.0917
GACTAGTC | -0.431
AGTATACC | -0.0235
CACATCTA | -0.144
GTACCCAA | -0.00617
ATTTCATC | 0.0139
GCGCCACC | -0.185
GCGCGGGA | -0.155
CGTATCCC | 0.189
AGAACCAG | 0.0955
CGCACCAG | 0.118
GGTTCAAA | -0.0629
ATTAAGTG | 0.0922
TATAATGA | 0.174
CAGGAATC | 0.394
GCAAAAAA | 0.0787
ATTCCGGA | 0.197
GAAAAAGA | 0.115
GCCCTGTA | 0.0785
AGTACTTC | 0.0452
